This note sets out measurements from ChEMBL document CHEMBL2021834, “Novel sulfonylurea derivatives as H3 receptor antagonists. Preliminary SAR studies” (Eur J Med Chem, 2012).

Structures are written as SMILES.

In this test the target is Voltage-gated inwardly rectifying potassium channel KCNH2 (Homo sapiens, UniProt Q12809).
Chain of Voltage-gated inwardly rectifying potassium channel KCNH2 (Q12809 whole entry): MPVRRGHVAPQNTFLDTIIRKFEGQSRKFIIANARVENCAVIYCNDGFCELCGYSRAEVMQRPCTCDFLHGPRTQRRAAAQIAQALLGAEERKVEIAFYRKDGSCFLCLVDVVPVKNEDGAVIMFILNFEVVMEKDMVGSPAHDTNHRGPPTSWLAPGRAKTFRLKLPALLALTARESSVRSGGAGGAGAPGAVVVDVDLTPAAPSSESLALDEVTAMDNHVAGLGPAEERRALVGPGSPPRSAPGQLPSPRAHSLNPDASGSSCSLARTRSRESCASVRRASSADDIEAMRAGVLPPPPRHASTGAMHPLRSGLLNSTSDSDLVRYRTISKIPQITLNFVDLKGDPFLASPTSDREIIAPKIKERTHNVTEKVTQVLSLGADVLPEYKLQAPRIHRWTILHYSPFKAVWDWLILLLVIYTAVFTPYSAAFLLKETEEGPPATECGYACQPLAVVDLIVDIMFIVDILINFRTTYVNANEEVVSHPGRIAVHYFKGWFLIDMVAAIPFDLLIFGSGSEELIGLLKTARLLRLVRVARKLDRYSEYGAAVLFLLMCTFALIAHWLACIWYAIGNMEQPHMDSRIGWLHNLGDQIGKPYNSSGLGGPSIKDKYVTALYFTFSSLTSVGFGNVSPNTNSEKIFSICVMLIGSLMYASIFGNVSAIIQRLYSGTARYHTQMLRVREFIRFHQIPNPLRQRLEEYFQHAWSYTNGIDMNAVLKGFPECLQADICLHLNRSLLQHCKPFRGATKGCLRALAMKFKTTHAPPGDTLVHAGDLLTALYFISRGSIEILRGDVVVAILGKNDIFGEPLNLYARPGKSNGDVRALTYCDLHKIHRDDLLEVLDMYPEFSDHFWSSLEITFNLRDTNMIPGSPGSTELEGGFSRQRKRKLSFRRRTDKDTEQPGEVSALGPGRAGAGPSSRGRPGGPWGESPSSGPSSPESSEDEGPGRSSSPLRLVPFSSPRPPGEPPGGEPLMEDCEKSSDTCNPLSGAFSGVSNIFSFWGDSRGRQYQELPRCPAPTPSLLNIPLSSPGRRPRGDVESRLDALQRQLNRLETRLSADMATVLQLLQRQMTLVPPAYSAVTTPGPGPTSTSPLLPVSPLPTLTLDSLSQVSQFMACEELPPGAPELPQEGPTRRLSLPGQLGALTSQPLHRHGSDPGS
`O=C(Nc1ccc(C(F)(F)F)cc1)NS(=O)(=O)c1ccc(OCCCN2CCCCC2)cc1` registered an IC50 greater than 100 µM.

For `CCOC(=O)C1CCN(CCCOc2ccc(S(=O)(=O)NC(=O)Nc3ccccc3)cc2)CC1`, it took 78.7 µM to reach half-maximal inhibition (IC50).

Compound `CC(C)NC(=O)NS(=O)(=O)c1ccc(OCCCCN2CCCC2)cc1` gave an IC50 greater than 100 µM.

In turn, `O=C(Nc1ccccc1)NS(=O)(=O)c1ccc(OCCCCN2CCCC2)cc1` displayed an IC50 greater than 100 µM.

Take `O=C(Nc1cc(Cl)ccc1Cl)NS(=O)(=O)c1ccc(OCCCCN2CCCC2)cc1`: the IC50 is greater than 100 µM.

Consider `CC(C)NC(=O)NS(=O)(=O)c1ccc(OCCCCN2CCCCC2)cc1`, for which the IC50 was greater than 100 µM.

Consider `O=C(Nc1ccccc1)NS(=O)(=O)c1ccc(OCCCCN2CCCCC2)cc1`, for which the IC50 is greater than 100 µM.

Regarding `O=C(Nc1ccc(C(F)(F)F)cc1)NS(=O)(=O)c1ccc(OCCCCN2CCCCC2)cc1`, the half-inhibitory concentration (IC50) was greater than 100 µM.

Turning to `O=C(Nc1cccc(C(F)(F)F)c1)NS(=O)(=O)c1ccc(OCCCN2CCCC2)cc1`, the concentration for half-maximal inhibition (IC50) was greater than 100 µM.

Take `CC(=O)c1ccc(NC(=O)NS(=O)(=O)c2ccc(OCCCN3CCCC3)cc2)cc1`: the IC50 was greater than 100 µM.

Compound `CC(=O)c1ccc(NC(=O)NS(=O)(=O)c2ccc(OCCCN3CCCCC3)cc2)cc1` displayed an IC50 greater than 100 µM.

The compound `O=C(NC(c1ccccc1)c1ccccc1)NS(=O)(=O)c1ccc(OCCCN2CCCCC2)cc1` yielded an IC50 greater than 100 µM.

Consider `NS(=O)(=O)c1ccc(OCCN2CCCC2)cc1`, for which the IC50 was greater than 100 µM.

`NS(=O)(=O)c1ccc(OCCN2CCCCC2)cc1` had an IC50 of 24 µM.

The compound `NS(=O)(=O)c1ccc(OCCCN2CCCCC2)cc1` displayed an IC50 of 93.2 µM. This IC50 lies about 3.9-fold higher than the previous one.

With `O=C(Nc1ccccc1)NS(=O)(=O)c1ccc(OCCN2CCCC2)cc1`, the IC50 was greater than 100 µM.

As for `CC(C)NC(=O)NS(=O)(=O)c1ccc(OCCN2CCCCC2)cc1`, the IC50 was 26.1 µM.

For `CC(C)NC(=O)NS(=O)(=O)c1ccc(OCCCN2CCCC2)cc1`, the IC50 is greater than 100 µM.

The compound `O=C(Nc1cc(Cl)ccc1Cl)NS(=O)(=O)c1ccc(OCCCN2CCCC2)cc1` had an IC50 greater than 100 µM.

As to `O=C(Nc1ccc(C(F)(F)F)cc1)NS(=O)(=O)c1ccc(OCCCN2CCCC2)cc1`, the IC50 is greater than 100 µM.
